In all, about 110,000 compounds were measured (“z-score”: median about -0.1, highest 2% from about 2 on). This is one part of the list. Active and inactive are the calls of the source.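 Rule for the calls: active = z-score in the third read window above 3 or below -3; inactive = the rest.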

Results on 112 compounds are retold here after PubChem BioAssay AID488969 (Vanderbilt High Throughput Screening Facility, 2010).

This test has as its target Metabotropic glutamate receptor 8 (Rattus norvegicus) (UniProt P70579). In words: rat mGluR8 modulators via GIRK flux, primary screen, cell-based, thallium flux, HTS (AID 488969). Conditions: HEK293 rat mGluR8, GIRK (G protein-gated inwardly rectifying potassium channel) thallium flux, FluoZin2; at 10 µM; stronger effect = higher value; submaximal glutamate (EC20) added with thallium.
UniProt P70579, sequence (P70579 whole entry, looked up): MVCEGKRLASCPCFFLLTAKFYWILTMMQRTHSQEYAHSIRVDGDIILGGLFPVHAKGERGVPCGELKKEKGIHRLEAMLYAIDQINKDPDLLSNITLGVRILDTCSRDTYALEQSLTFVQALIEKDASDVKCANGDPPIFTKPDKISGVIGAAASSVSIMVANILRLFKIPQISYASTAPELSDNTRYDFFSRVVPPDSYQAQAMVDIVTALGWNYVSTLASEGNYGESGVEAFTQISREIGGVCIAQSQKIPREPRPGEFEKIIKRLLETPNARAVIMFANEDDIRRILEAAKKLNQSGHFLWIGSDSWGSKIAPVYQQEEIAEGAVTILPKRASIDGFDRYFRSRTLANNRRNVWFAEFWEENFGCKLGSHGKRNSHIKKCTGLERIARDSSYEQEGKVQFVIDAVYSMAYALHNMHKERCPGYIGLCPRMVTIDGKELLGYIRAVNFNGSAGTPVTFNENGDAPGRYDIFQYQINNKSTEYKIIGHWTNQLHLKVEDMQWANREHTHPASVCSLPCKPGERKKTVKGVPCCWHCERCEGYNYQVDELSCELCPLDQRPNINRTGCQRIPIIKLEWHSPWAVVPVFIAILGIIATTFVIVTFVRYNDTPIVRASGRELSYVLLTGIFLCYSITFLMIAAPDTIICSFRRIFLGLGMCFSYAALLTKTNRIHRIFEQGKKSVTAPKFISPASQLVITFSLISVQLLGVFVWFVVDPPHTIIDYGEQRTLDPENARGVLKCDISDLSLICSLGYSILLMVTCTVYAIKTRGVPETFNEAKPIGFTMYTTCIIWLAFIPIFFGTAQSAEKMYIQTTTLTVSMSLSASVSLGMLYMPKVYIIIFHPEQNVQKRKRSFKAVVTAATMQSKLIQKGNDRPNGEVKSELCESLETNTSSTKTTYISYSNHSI
For `Cn1cccc1CNCc1ccccc1Cl`, the z-score was -0.103.

Consider `CCC(=O)N(CC)C1=C(O)c2ccccc2C(=O)C1=O`, for which the z-score is -0.181.

Consider `COc1ccccc1N1CCN(C(=O)c2cc(-c3ccc(Cl)c(Cl)c3)on2)CC1`, for which the z-score was -0.219.

Compound `Cn1nccc1C(=O)N1CCN(c2ccc(F)cc2)CC1` returned a z-score of -0.126.

`c1ccc(CN2CCN(C(c3ccccc3)c3nnnn3Cc3ccccc3)CC2)cc1` (configuration not stated): the z-score came out at 0.427.

`O=C(COC(=O)c1ccccc1C(=O)c1ccccc1)NCCc1ccc(Cl)cc1Cl` yielded a z-score of -0.0656.

`N/C(=N\OC(=O)c1cccc(Br)c1)c1ccc(Br)cc1` showed a z-score of -0.325.

Turning to `Cc1nnsc1NC(=O)OCc1ccc(C(F)(F)F)cc1`, the z-score came to 0.0066.

The compound `O=C(CSc1nc2ccc(Nc3nc(N4CCOCC4)nc(N4CCOCC4)n3)cc2s1)N1CCOCC1` registered a z-score of -0.0699.

For `COc1ccc(NS(=O)(=O)c2ccc(NC(=S)NC(=O)c3ccc(F)cc3)cc2)nn1`, the z-score was -0.142.

In the case of `C/C(=N\NC(=O)c1nn(C)cc1Cl)c1ccncc1`, the z-score was -0.323.

The compound `Cc1[nH]c2ccccc2c1C1=CN2CCS(=O)(=O)N=C2S1` registered a z-score of 0.0958.

As to `O=C(CN1CCN(c2cccc(C(F)(F)F)c2)CC1)Nc1cccc(C(F)(F)F)c1`, the z-score stood at 1.

In turn, `COc1ccccc1NC(=O)CC(c1ccc(OC(C)C)cc1)c1ccccc1OC` (configuration not stated) returned a z-score of -0.193.

On to `COc1ccccc1C(=O)NN=C1CCN(Cc2ccccc2)CC1`, for which the z-score is -0.0272.

The compound `CCOC(=O)c1[nH]c(C)c(C(=O)OCC(=O)N2CCc3ccccc32)c1C` yielded a z-score of -0.0546.

Turning to `COC(=O)Cn1c(=NC(=O)c2cc(-c3cccs3)nc3ccccc23)sc2cc(S(N)(=O)=O)ccc21`, the z-score was -0.289.

Compound `Cc1ccc(/C=c2\sc3n(c2=O)CN(c2ccc(Br)cc2)CN=3)o1` came in with a z-score of -1.97.

`CCCNC(=O)C(Cc1ccccc1)NS(=O)(=O)c1ccc2c(c1)c(=O)n(C)c(=O)n2C` (configuration not stated) had a z-score of 0.0163.

Compound `CC1=NC(=O)C(N=Nc2cccc(C(=O)O)c2)N1c1ccccc1` (configuration not stated) displayed a z-score of -0.167.

In turn, `O=C(Nn1c(C2CCCCC2)nc2ccccc2c1=O)c1cc(Cl)ccc1[N+](=O)[O-]` came in with a z-score of 0.0592.

The compound `Cn1nc(C(=O)NC2CCCCC2)c2ccccc2c1=O` returned a z-score of -0.288.

Take `c1ccc(-c2ccc(OCCCn3cncn3)cc2)cc1`: the z-score is 0.066.

Take `COc1ccc(S(=O)(=O)N2CC3CCCN3c3cc(C(F)(F)F)ccc32)cc1` (configuration not stated): the z-score was -0.745.

Take `CCc1ccc(/C=C2\CN(CC)Cc3c2nc2ccccc2c3C(=O)O)cc1`: the z-score is -0.0446.

In turn, `Cc1occc(=O)c1OC(=O)Nc1ccccc1` returned a z-score of -0.232.

The compound `CC1SCC(=O)N(CC(=O)NCc2ccccc2)C1=O` (configuration not stated) had a z-score of -0.233.

Turning to `CC(C)NC(=O)NC(=O)COC(=O)c1ccccc1F`, the z-score was -0.0834.

On to `COc1ccc(C(=O)O)cc1S(=O)(=O)N(C)CCc1cccnc1`, for which the z-score was -0.129.

Take `CCc1cc(OCCCCNCc2ccccc2)ccc1Cl`: the z-score is 0.167.

`O=C(NCC1CCCO1)C1CCN(C(=O)c2ccc(Cl)cc2)CC1` (configuration not stated): the z-score was -0.284.

With `Cc1ccccc1NC(=O)c1cnc2ccccn2c1=O`, the z-score was -0.233.

Compound `CCOc1ccc(S(=O)(=O)N(C)c2ccc(OCC(=O)Nc3nc(-c4cc(OC)ccc4OC)cs3)cc2)cc1` came in with a z-score of -0.389.

For `CC(=O)Nc1ccc(N2C(=O)CCC2=O)cc1C`, the z-score was 0.00186.

Compound `O=C(CSc1nnc(-c2cccnc2)n1Cc1ccco1)N1c2ccccc2Sc2ccccc21` registered a z-score of -0.115.

As to `COc1ccc(NS(=O)(=O)c2ccc(OCC(=O)N3CCOCC3)cc2)cc1`, the z-score was 0.045.

`O=C(COC(=O)c1cccnc1Nc1cccc(C(F)(F)F)c1)NCc1ccc2c(c1)OCO2` showed a z-score of -0.129.

Compound `Clc1ccc(OCCCCSc2ncccn2)cc1` gave a z-score of 0.674.

As to `COCC(=O)c1[nH]c2ccccc2c1C`, the z-score was -0.0109.

On to `Cc1nc2ccc(NC3=NCCCCC3)cc2s1`, for which the z-score was 0.806.

`O=C1CCC([N+](=O)[O-])C(c2ccccc2Cl)N1` (configuration not stated) displayed a z-score of -0.399.

Regarding `Cc1cccc(Oc2sc(C(=O)c3ccccc3)c(N)c2C#N)c1C`, the z-score is -0.295.

Compound `O=C(Nc1ccc2c(c1)OCCO2)c1cccs1` showed a z-score of -0.281.

Compound `COc1cccc(CNC(=O)C2CCCN(c3nn4c(=O)cc(C)nc4s3)C2)c1OC` (configuration not stated) came in with a z-score of -0.214.

As to `COc1ccc(-n2c(COc3ccc4ccccc4c3)nnc2SCC(=O)NCc2ccco2)cc1`, the z-score amounted to 0.832.

As for `COc1ccc(/C=C(/NC(=O)c2ccccc2)c2nc3ccc(Cl)cc3[nH]2)cc1OC`, the z-score is -0.329.

With `Cc1cccc(CN2C(=O)N/C(=C/c3cc(C)n(-c4cc(C)ccn4)c3C)C2=O)c1`, the z-score was -0.273.

On to `COc1cccc(C(=O)Oc2cc(-c3ccccc3)no2)c1`, for which the z-score is -0.361.

With `O=C(c1ccc(COc2ccccc2Br)o1)N1CCN(c2ccccn2)CC1`, the z-score is -1.04.

As for `Cc1ccc(C(=O)COC(=O)CCC(=O)NC2CCCCC2)cc1C`, the z-score is -0.0803.

The compound `O=C(O)CCC(=O)Nc1ccccc1C(=O)NC1CCCCC1` returned a z-score of -0.185.

Take `CC(=O)Nc1ccc(S(=O)(=O)N2CCOCC2)cc1`: the z-score is -1.1.

`COC(=O)c1cn(C(=O)c2cccs2)c2ccccc12` showed a z-score of 0.27.

Take `COC(=O)c1oc2ccc(Cl)cc2c1NC(C)=O`: the z-score is 0.415.

In the case of `COc1ccc(NC(=S)Nc2ccc(N)c([N+](=O)[O-])c2)cc1`, the z-score was -0.16.

In turn, `CCOC(=O)Nc1sc2c(c1C#N)CCCC2` had a z-score of 0.504.

The compound `COc1cc(=O)n2c(-c3ccccc3)csc2n1` had a z-score of 0.369.

Compound `O=c1cc(O)c(-c2ccccc2Cl)c(Cl)[nH]1` came in with a z-score of -0.193.

`Cc1ccc(-c2nn3c(C)nnc3s2)cc1NC(=O)c1cccs1` showed a z-score of -0.72.

Consider `CCCC(c1nnnn1CC(=O)OCC)N(Cc1cc2ccc(C)cc2[nH]c1=O)C1CCCC1` (configuration not stated), for which the z-score was -0.0222.

Turning to `CC(C)(C)c1cc(C(=O)NCc2ccccc2)ccn1`, the z-score is -0.233.

In turn, `CCOC(=O)c1c(/N=C/N(C)C)sc(/C=N/Nc2ccccc2)c1-c1ccccc1` returned a z-score of -0.237.

Turning to `Cc1cccc(-c2nc(CN3CCCC(C(=O)NC4CCCCC4)C3)c(C)o2)c1` (configuration not stated), the z-score is -2.43.

Compound `Cc1cc(=O)n(C)c(=O)n1CCCCCCOc1ccc([N+](=O)[O-])cc1` returned a z-score of 0.0833.

With `CCOC(=O)c1c(C)n(C)c2ccc(O)c(CN3CCN(C)CC3)c12`, the z-score was 0.0797.

`Cc1nnc(-c2cnn(C)c2N)n1Cc1ccccc1` had a z-score of 0.248.

On to `CCS(=O)(=O)N1CCN(c2ccccc2F)CC1`, for which the z-score was 0.337.

`NCCc1nnc(SCc2ccccc2F)o1` had a z-score of 0.00316.

`Cc1cccc(NS(=O)(=O)c2cc(C(=O)OC(C)C(=O)NCc3ccc4c(c3)OCO4)ccc2C)c1` (configuration not stated) displayed a z-score of -0.277.

With `CCOc1ccc(-c2nc(C#N)c(N3CCN(CC)CC3)o2)cc1`, the z-score was -1.03.

On to `CCCCCCn1ccc(=N)cc1`, for which the z-score stood at 0.937.

For the compound `O=C1NC(=O)C(Nc2cccc3ccccc23)S1` (configuration not stated), the z-score is -0.127.

Take `COc1cccc2cc(C(=O)NC3CC(C)(C)NC(C)(C)C3)c(=O)oc12`: the z-score stood at 0.914.

`CCN1CCN(c2ncnc3c2oc2nc(C)c4c(c23)CC(C)(C)OC4)CC1` showed a z-score of -0.192.

The compound `CN(C)S(=O)(=O)c1cccc(NC(=O)COC(=O)/C=C/c2ccco2)c1` registered a z-score of -0.175.

For `COc1ccc(C2CC(c3cccs3)=NN2C(=S)Nc2ccccc2)cc1OC` (configuration not stated), the z-score is -0.0857.

The compound `O=C1Nc2ccccc2C12OCCCCO2` had a z-score of -0.0325.

For the compound `Cc1nc2c(C)cccn2c1/C(O)=C1\C(=O)C(=O)N(CCN2CCOCC2)C1c1cccs1` (configuration not stated), the z-score was -0.0823.

The compound `CN(c1cccc(NC(=O)Nc2ccc(Cl)cc2)c1)S(C)(=O)=O` returned a z-score of -0.411.

In the case of `COc1ccc2c(c1)c(CCN1C(=O)c3ccccc3C1=O)cn2C(=O)c1ccco1`, the z-score is -0.748.

In the case of `CCOc1ccc(-c2nc(C#N)c(N3CCCCCC3)o2)cc1`, the z-score is -0.165.

As for `CCCCC(=O)Nc1nc2c(OC)ccc(OC)c2s1`, the z-score was -0.0216.

Consider `Cc1ccc(S(=O)(=O)NN=C2C3CC4CC(C3)CC2C4)cc1[N+](=O)[O-]`, for which the z-score was -0.336.

For the compound `CCOc1ccc2[nH]c(=O)c(CN(Cc3nnnn3CCc3ccccc3)CC3CCCO3)cc2c1` (configuration not stated), the z-score was -0.82.

On to `CCCc1sc(N)nc1-c1ccc(Cl)cc1`, for which the z-score is -0.288.

`Cc1ccc(NC(=O)C(NC2CCCc3ccccc32)c2ccccc2)cc1Cl` (configuration not stated) came in with a z-score of -0.174.

`O=C(O)C1CC(=O)N(Cc2ccc3c(c2)OCO3)C1` (configuration not stated) displayed a z-score of -0.169.

Compound `Cc1ccc([N+](=O)[O-])cc1NC(=O)CN1CCCCC1` had a z-score of -0.118.

`Cc1ccc2cc(C(c3nnnn3Cc3ccccc3)N3CCc4ccccc43)c(=O)[nH]c2c1` (configuration not stated) returned a z-score of -0.121.

Take `Cc1cccc(OCC(=O)Nc2nnn(C)n2)c1C`: the z-score was -0.175.

With `Oc1[nH]c2ccccc2c1N=Nc1ccc(F)cc1`, the z-score was -0.405.

Regarding `C=CCn1c(SCc2nc3ccccc3[nH]2)nnc1-c1cccc(OC)c1`, the z-score is -0.203.

Take `CCCCc1nc(N2CCOCC2)c(C#N)c2c1COC(C)(C)C2`: the z-score was -0.434.

`Cc1cc(C)n(-c2nc3ccccc3nc2Nc2ccc(CC(=O)O)cc2)n1` registered a z-score of 1.13.

`Cc1ccc(OCC(=O)N/N=C\c2ccncc2)c(C)c1`: the z-score came to 1.4.

For the compound `COc1ccc(C(=O)Cn2c(C(=O)/C=C/c3ccccc3)nc3ccccc32)cc1`, the z-score was 0.108.

`CCn1c(SCC(=O)N2CCN(S(=O)(=O)c3ccccc3)CC2)nnc1-c1cccs1`: the z-score stood at 0.253.

Regarding `c1nnc(NC2=NCCCCC2)s1`, the z-score turned out to be 0.397.

`O=C(CN1CCN(CC(=O)c2ccc(F)cc2)CC1)Nc1ccccc1Cl`: the z-score was -0.57.

In the case of `O=C(Nc1ccc2c(c1)nc1n2CCN(Cc2ccccc2)C1)NC1CCCCC1`, the z-score was -0.00948.

Compound `CC(C)Oc1cc(NC(=O)CS(=O)CC(=O)Nc2cccc(C(F)(F)F)c2)c(Cl)cc1Cl` (configuration not stated) came in with a z-score of 2.75.

Consider `Cc1ccc(S(=O)(=O)N2CCCC(C(=O)NCCC3=CCCCC3)C2)cc1` (configuration not stated), for which the z-score is -0.113.

Take `O=c1[nH]c(NCc2ccccc2)nc2c1CCCC2`: the z-score is -0.118.

Turning to `O=S(=O)(c1ccc2c(c1)nc(COc1ccc(Cl)cc1)n2CC1CCCO1)N1CCOCC1` (configuration not stated), the z-score was -0.726.

`COc1ccc(CCNc2cc(=O)[nH]c(N)n2)cc1` gave a z-score of 0.326.

For the compound `CCn1c(CNC(=O)COc2c(C)cccc2C)nnc1SCC(=O)Nc1nccs1`, the z-score is -0.314.

Take `CCC(=O)N1c2ccc(C)cc2C2=NNC(=S)NC21O` (configuration not stated): the z-score was active: 3.09.

`CN(C(=S)NC(=O)C1(C)CC1(Cl)Cl)c1ccccc1` (configuration not stated) showed a z-score of 0.779.

`Cc1ccc(-c2nc(N/N=C/c3cccnc3)c3ccccc3n2)cc1`: the z-score is -0.0686.

With `CCCCCCC(=O)N/N=C1\CCCc2ccccc21`, the z-score is -0.118.

In turn, `Cc1ccnc(NS(=O)(=O)c2ccc(NS(=O)(=O)c3ccccc3)cc2)n1` returned a z-score of 0.597.

As for `CN(CC(CC(=O)Nc1nncs1)c1ccccc1)S(=O)(=O)c1ccccc1` (configuration not stated), the z-score was -0.266.
